Assay results published in the supplement of paper PMC4967469.
pIC50: −log10 of the molar value. The IC50 comes from the fitted curve, where viability falls to half of the control; fits outside the tested doses are given as limits. For AUC the same curve is integrated over the 256-fold range of doses and scaled to a fraction: 1 means no effect, lower means more sensitive. For part of these data: An inferred top dose comes from the curve model; the source does not state it. For part of these data: Drugs with an entry number were screened twice under separate entries, and the two screens often disagree.

Tests used:
Assay in all cases: Viability of human cancer cell lines after 72 h of drug (GDSC screen)
[1] = compound: C/C=C(/C)C(=O)O[C@H]1C(C)=C2[C@H]([C@@H]1OC(=O)CCCCCCC)[C@@](C)(OC(C)=O)C[C@H](OC(=O)CCC)[C@@]1(O)[C@H]2OC(=O)[C@@]1(C)O [Thapsigargin]; conditions: top dose 0.512 µM; top dose inferred
Procedure: (§1)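 Human cancer cell lines in 384-well plates, medium with 10% serum, drug for 72 h over a 256-fold dose range (nine 2-fold or five 4-fold steps up to the top dose). Adherent lines were fixed and stained with the nucleic acid dye Syto60, suspension lines read with resazurin; signal relative to control wells, capped at 0 and 100%. One two-parameter sigmoid per drug and line, fitted in a mixed model over all curves with the slope shared within a line.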

[2] = compound: C=CC(=O)Nc1cc(-n2c(=O)ccc3cnc4ccc(-c5cn[nH]c5)cc4c32)ccc1C [QL-X-138]; conditions: top dose 10.24 µM; top dose inferred
Procedure: as §1

[3] = compound: CCn1c(-c2nonc2N)nc2cnc(Oc3cccc(NC(=O)c4ccc(OCCN5CCOCC5)cc4)c3)cc21 [GSK269962A]; conditions: top dose 5 µM; screen: GDSC drug entry 1192; top dose inferred
Procedure: as §1

[4] = compound: COc1cc(N2CCC(O)CC2)ccc1Nc1cc(Nc2ccccc2S(=O)(=O)C(C)C)c2cc[nH]c2n1 [MPS-1-IN-1]; conditions: top dose 20 µM; top dose inferred
Procedure: as §1

[5] = compound: COc1cc(O)c2c(c1)/C=C/C[C@H](O)[C@H](O)C(=O)/C=C\C[C@H](C)OC2=O [(5Z)-7-Oxozeaenol]; conditions: top dose 10 µM; top dose inferred
Procedure: as §1

[6] = compound: COc1cc2ncnc(-n3nc(-c4ccccn4)nc3N)c2cc1OC [CP466722]; conditions: top dose 16 µM; top dose inferred
Procedure: as §1

[7] = compound: COc1nc(C)cnc1NS(=O)(=O)c1cccnc1-c1ccc(-c2nnco2)cc1 [Zibotentan]; conditions: top dose 20 µM; top dose inferred
Procedure: as §1

[8] = compound: C[C@]1(c2nc3c(C(N)=O)cccc3[nH]2)CCCN1 [ABT-888]; conditions: top dose 5 µM; top dose inferred
Procedure: as §1

[9] = compound: Cc1ccc(F)c(NC(=O)Nc2ccc(-c3cccc4[nH]nc(N)c34)cc2)c1 [ABT-869]; conditions: top dose 1.024 µM; top dose inferred
Procedure: as §1

[10] = compound: Cc1cnc(-c2cnc(NCCNc3ccc(C#N)cn3)nc2-c2ccc(Cl)cc2Cl)[nH]1 [CHIR-99021]
Procedure: as §1

[11] = compound: O=c1cc(-c2cccc3c2Sc2ccccc2S3)oc(N2CCOCC2)c1 [KU-55933]; conditions: top dose 10 µM
Procedure: as §1

[12] = top dose 2.56 µM, screen: GDSC drug entry 154
[13] = top dose 10 µM, screen: GDSC drug entry 1241, top dose inferred

Cell Line | AUC [1] | pIC50 [1] | AUC [2] | pIC50 [2] | AUC [3] | pIC50 [3] | AUC [4] | pIC50 [4] | AUC [5] | pIC50 [5] | AUC [6] | pIC50 [6] | AUC [7] | pIC50 [7] | AUC [8] | pIC50 [8] | AUC [9] | pIC50 [9] | AUC [10, 12] | pIC50 [10, 12] | AUC [10, 13] | pIC50 [10, 13] | AUC [11] | pIC50 [11]
SNU-423 (liver, adherent) | 0.23 | 8.35 | 0.525 | 6.12 | 0.738 | 5.77 | 0.942 | < 4.70 | 0.688 | 5.63 | 0.685 | 5.44 | 0.982 | < 4.70 | 0.979 | < 5.30 | 0.982 | < 5.99 | 0.835 | 5.68 | 0.94 | < 5.00 | 0.97 | < 5.00
SU8686 (pancreas, adherent) | 0.377 | 7.85 | 0.907 | < 4.99 | 0.984 | < 5.30 | 0.974 | < 4.70 | 0.844 | 5.07 | 0.936 | < 4.80 | 0.984 | < 4.70 | 0.986 | < 5.30 | 0.984 | < 5.99 | 0.986 | < 5.59 | 0.948 | < 5.00 | 0.975 | < 5.00
SU-DHL-5 (B-cell lymphoma, suspension) | 0.096 | 8.57 | 0.361 | 6.53 | 0.423 | 6.69 | 0.839 | 5.04 | 0.354 | 6.56 | 0.695 | 5.52 | 0.99 | < 4.70 | 0.994 | < 5.30 | 0.994 | < 5.99 | 0.96 | < 5.59 | 0.875 | 5.23 | 0.921 | 5.06
SW620 (large intestine, adherent) | 0.148 | 8.50 | 0.671 | 5.74 | 0.929 | < 5.30 | 0.876 | 4.80 | 0.434 | 6.37 | 0.777 | 5.25 | 0.989 | < 4.70 | 0.989 | < 5.30 | 0.977 | < 5.99 | 0.99 | < 5.59 | 0.987 | < 5.00 | 0.99 | < 5.00
Saos-2 (osteosarcoma, adherent) | 0.447 | 7.67 | 0.951 | < 4.99 | 0.705 | 5.82 | 0.981 | < 4.70 | 0.743 | 5.37 | 0.981 | < 4.80 | 0.981 | < 4.70 | 0.979 | < 5.30 | 0.981 | < 5.99 | 0.97 | < 5.59 | 0.978 | < 5.00 | 0.977 | < 5.00
T-T (oesophagus, adherent) | 0.055 | > 8.70 | 0.904 | < 4.99 | 0.868 | 5.34 | 0.889 | < 4.70 | 0.805 | 5.30 | 0.971 | < 4.80 | 0.987 | < 4.70 | 0.983 | < 5.30 | 0.987 | < 5.99 | 0.981 | < 5.59 | 0.948 | < 5.00 | 0.9 | < 5.00
